Results from PubChem BioAssay AID651820 (National Center for Advancing Translational Sciences (NCATS), 2012).
Among all 340,000 compounds or so, about 12,000 (3.5%) were called active. Inconclusive means that the source gave no clear call. Such entries were picked first, then a sample of the others. The call rests on the fitted dose curve; in most records, active means well fitted inhibition curve with a large enough effect; inconclusive means small, poorly fitted or top-dose-only effect, or another doubt; inactive means no such curve, though single readings can be large or run the other way. Potencies of inconclusive entries are left out as doubtful fits.

Assay: qHTS Assay for Inhibitors of Hepatitis C Virus (HCV)
Settings: Huh7.5.1 HCVcc-Cre (HCVcc is cell-culture hepatitis C virus) infection, luciferase reporter, 44 h; activity change, negative = inhibition: at 41.8 µM (top of the series) unless noted
In short: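 Infectious HCV cell culture screen: compound-treated cells (1,000/well, pre-plated 4 h) are infected with HCVcc-Cre at roughly 0.5 moi and grown 44 h. Infection is quantified by luciferase signal after 15 min substrate incubation at room temperature.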
On the % scale 0 is the no-effect control and ±100 the full control effect; potency means the concentration at half of the fitted maximal effect; tags describe the fitted curve by direction and shape.

Row | SMILES | Potency | activity change, negative = inhibition
1 | CCOC(=O)c1cc(CC)sc1NC(=O)c1cc([N+](=O)[O-])ccc1N1CCOCC1 | inconclusive [inhibitor, partial curve] | –
2 | CCN1CCCC1CNC(=O)c1ccc(Sc2ccccc2Cl)c([N+](=O)[O-])c1 (stereo not given) | active: 5.62 µM | –
3 | O=C(NC1CCCC1)c1ccc(CS(=O)(=O)Cc2ccccc2F)o1 | inconclusive [inhibitor, single point] | –
4 | Cn1c(=S)[nH]c2cccnc21 | – | inactive: 0.115%
5 | CCOc1ccc(NC(=O)CSc2nc3c(c(=O)n2C)SC(C)C3)cc1 (stereo not given) | inconclusive [inhibitor, single point] | –
6 | O=C1C(N2CCOCC2)=C(n2nnc3ccccc32)C(=O)c2ccccc21 | active: 7.08 µM | –
7 | FC(F)(F)c1nnc(-c2ccccc2)nc1N1CCOCC1 | – | inactive: -10.4%
8 | CC(C)Cn1c(=S)[nH]c2ccccc2c1=O | inconclusive [inhibitor, single point] | –
9 | CCOC(=O)C1(Cc2cccc(Cl)c2)CCCN(C(=O)c2ccc(COC)s2)C1 (stereo not given) | – | inactive: -4.3%
10 | O=C(C1=C[C@@H](c2ccc3c(c2)OCO3)C[C@@H](OCCCCO)O1)N1CCN(Cc2ccc3c(c2)OCO3)CC1 | active: 0.562 µM | –
11 | CC12CCC(C(=O)Nc3ccncc3)(CC1O)C2(C)C (stereo not given) | – | inactive: 2.97%
12 | O=C(CCN1C(=O)COc2ccccc21)NCCCN1CCCC1 | – | inactive: 0.563%
13 | N#Cc1c(-c2ccccc2F)cc(-c2cccnc2)nc1N | inconclusive [inhibitor, single point] | –
14 | Cc1cnc(C(=O)OC(C(=O)c2c[nH]c3ccccc23)c2ccccc2)cn1 (stereo not given) | inconclusive [inhibitor, single point] | –
15 | COc1ccc(-c2cc(C)no2)cc1S(=O)(=O)N1CCN(c2cccc(C)c2)C(C)C1 (stereo not given) | active: 10 µM | –
16 | COc1cc(OC)cc(-c2nnc(SCc3cccnc3)o2)c1 | – | inactive: -29.1%
17 | COc1ccccc1N1C(=O)C2C3C=CC(CC3)C2C1=O (stereo not given) | – | inactive: 0.168%
18 | CC(=O)c1cccc(NC(=O)c2cccc(S(=O)(=O)N(C)C)c2)c1 | inconclusive [inhibitor, partial curve] | –
19 | COc1ccc(OCC(O)CNC(=O)Nc2ccc(Cl)cc2)cc1 (stereo not given) | inconclusive [inhibitor, single point] | –
20 | CCOc1ccc(CCNC(=O)c2ccc(C)c(N3CCCC3=O)c2)cc1OCC | inconclusive [inhibitor, full curve, poor fit] | –
21 | COc1ccccc1OCCNC(=O)c1ccc(C(C)(C)C)cc1 | inconclusive [inhibitor, full curve, poor fit] | –
22 | Cc1ccc(S(=O)(=O)N(Cc2cccc(F)c2)C(=O)N2CCN(C)CC2)cc1 | – | inactive: 4.66% [at 8.37 µM]
23 | COc1ccc(F)cc1S(=O)(=O)Nc1cc2c3c(c1)CC(=O)N3CCC2 | inconclusive [inhibitor, full curve] | –
24 | CCOc1cc(/C=N/NC(=O)c2nn(C)cc2Br)ccc1OCc1ccccc1Cl | inconclusive [inhibitor, partial curve] | –

Row | SMILES | Potency | activity change, negative = inhibition
25 | CCCCNC(=O)c1ccc2c(c1)N(CC)C(=O)c1ccccc1S2(=O)=O | inconclusive [inhibitor, single point] | –
26 | O=C(Cn1cnc2c(nnn2-c2ccccc2)c1=O)NCc1ccco1 | inconclusive [inhibitor, partial curve, poor fit] | –
27 | COc1ccc(C(=O)CC(=O)c2ccc(C(C)(C)C)cc2)cc1 | inconclusive [inhibitor, partial curve] | –
28 | Cc1ccc2c(c1)CCCN2CC(=O)Nc1cc(S(=O)(=O)N2CCCC2)ccc1Cl | inconclusive [inhibitor, single point] | –
29 | OC(CSc1ccccc1Cl)CN1CCN(c2ccccc2F)CC1 (stereo not given) | inconclusive [inhibitor, partial curve] | –
30 | CCC(Sc1nc2c(c(=O)n1CC)SC(C)C2)C(=O)OC (stereo not given) | – | inactive: 10.6%
31 | Cc1cccc(C2c3[nH]c4ccccc4c3CCN2C(=O)c2nn(C)c(=O)c3ccccc23)n1 (stereo not given) | inconclusive [inhibitor, single point] | –
32 | Oc1c(N=NC(=S)Nc2ccccc2F)c2ccccc2n1Cc1ccc(Cl)cc1 | inconclusive [inhibitor, full curve] | –
33 | CCOc1ccc(S(=O)(=O)NCC2CCCO2)c2cccnc12 (stereo not given) | inconclusive [inhibitor, partial curve, poor fit] | –
34 | O=C1CC(C(=O)O)C2(CCCC2)O1 (stereo not given) | – | inactive: 2.22%
35 | O=C(N/N=C/c1ccc(F)cc1)c1cccc(NC(=O)c2ccccc2Cl)c1 | inconclusive [inhibitor, partial curve] | –
36 | CCc1oc(C(=O)OC)cc1CSC(=N)N | inconclusive [inhibitor, full curve, poor fit] | –
37 | O=C(COc1ccccc1)Nc1cc(C(F)(F)F)ccc1N1CCCC1 | inconclusive [inhibitor, partial curve] | –
38 | CC(O)CNCCNCc1c(OCc2ccccc2)ccc2ccccc12 (stereo not given) | inconclusive [inhibitor, single point] | –
39 | CC(=O)N(C)N1c2ccccc2CCc2ccccc21 | inconclusive [inhibitor, full curve] | –
40 | CCCCSc1nc2sc3c(c2c(=O)[nH]1)CC(C)(CC)OC3 (stereo not given) | – | inactive: 13.4%
41 | CCC1CCCCN1CCCNC(=O)Cn1c(=O)c2cccn2c2ccccc21 (stereo not given) | inconclusive [inhibitor, single point] | –
42 | O=c1c2ccccc2nc2n1C1(CCCCC1)Cc1ccccc1-2 | inconclusive [inhibitor, partial curve, poor fit] | –
43 | COc1ccccc1C(=O)NC(CCSC)C(=O)NNC(=O)c1ccccc1O (stereo not given) | inconclusive [inhibitor, single point] | –
44 | CCCNC(=O)C(Cc1ccccc1)NC(=O)c1ccc(-c2ccccc2)cc1 (stereo not given) | – | inactive: -3.62%
45 | Cc1ccc(C(C)C)c(O)c1C(=O)O | inconclusive [inhibitor, single point] | –
46 | O=C(CSc1nnc(-c2ccccn2)n1Cc1ccco1)c1ccc(-c2ccccc2)cc1 | inconclusive [inhibitor, partial curve] | –
47 | COc1cc(OC)cc(C(=O)NC(=S)Nc2ccc(Cl)c(C(=O)O)c2)c1 | – | inactive: 21.4%
48 | C/C(N)=C(/C#N)C(=O)CSc1nnc(Nc2cccc(C)c2)s1 | inconclusive [inhibitor, partial curve] | –

Row | SMILES | Potency | activity change, negative = inhibition
49 | CCC(=O)Nc1cc(C(=O)N2CCC3(CC2)OCCO3)ccc1S(=O)(=O)c1ccc(C)cc1 | – | inactive: -4.75%
50 | Cc1cc(NC(=O)c2cncc(Br)c2)ccc1NC(=O)c1cc2ccccc2o1 | inconclusive [inhibitor, full curve] | –
51 | CCN1CCN(c2c(/C=C3\SC(=S)N(Cc4ccco4)C3=O)c(C)c(C#N)c(=O)n2C)CC1 | active: 2.24 µM | –
52 | COc1ccc(OC)c2c(C)cc(N3CCN(C(=O)c4ccc(F)cc4)CC3)nc12 | inconclusive [inhibitor, single point] | –
53 | CCN(Cc1ccncc1)S(=O)(=O)c1ccc(C(C)=O)cc1 | inconclusive [inhibitor, partial curve] | –
54 | O=c1[nH]c(C2CCN(S(=O)(=O)c3ccccc3)CC2)nc2c1nnn2Cc1c(F)cccc1Cl | inconclusive [inhibitor, single point] | –
55 | CCN1CCN(c2cc(C)c3cc(NC(=O)c4cccc(OC)c4)ccc3n2)CC1 | inconclusive [inhibitor, partial curve] | –
56 | CCc1nnc(NC(=O)C23CC4CC(CC(C4)C2)C3)s1 | – | inactive: 11.9%
57 | CCCCN(CCCC)CC(O)COc1ccccc1Br (stereo not given) | inconclusive [inhibitor, single point] | –
58 | COc1ccc(Cc2noc(CN3CCCN(C4Cc5ccccc5C4)CC3)n2)cc1OC | inconclusive [inhibitor, single point] | –
59 | Cc1c(Br)cc(C(=O)NCCCN2CCOCC2)c(C)c1C | inconclusive [inhibitor, full curve, poor fit] | –
60 | Cn1c(=O)[nH]c(=O)c2c1nc(N1CCCCC1)n2CC(O)COc1ccc([N+](=O)[O-])cc1 (stereo not given) | – | inactive: 5.27%
61 | CCOC(=O)c1c(C)[nH]c2c1-c1ccccc1C(=O)C2=O | active: 2.51 µM | –
62 | Cc1c(C(=O)N2CCc3ccccc3C2)oc2ccc(S(=O)(=O)N3CC(C)CC(C)C3)cc12 (stereo not given) | inconclusive [inhibitor, single point] | –
63 | CCN(c1ccccc1)S(=O)(=O)c1cccc(C(=O)NCc2cccnc2)c1 | inconclusive [inhibitor, partial curve, poor fit] | –
64 | C/C(=N\NC(=O)c1ccccc1)c1ccc(N2CCCCC2)cc1 | – | inactive: -16.5%
65 | CCCCN(CCCNC(=O)CN1C(=O)COc2ccc(S(=O)(=O)N3CCC(C)CC3)cc21)Cc1ccccc1 | – | inactive: -0.863%
66 | COc1ccc(C(=O)c2ccc(OC)c(OC)c2OC)cc1 | inconclusive [inhibitor, partial curve, poor fit] | –
67 | CC(C)c1nc2sc3ccccc3c(=O)c2c(=O)n1Cc1ccccc1 | inconclusive [inhibitor, single point] | –
68 | Cc1c(OC(C)C(=O)NCC(O)c2ccccc2)ccc2c3c(c(=O)oc12)CCCC3 (stereo not given) | active: 25.1 µM | –
69 | CCOC(=O)C1CCN(C(=O)CCc2c(C)nc3ncnn3c2C)CC1 | – | inactive: 15.8%
70 | CC(=O)Nc1cccc(NC(=O)c2cccc(S(=O)(=O)N3CCN(Cc4ccccc4)CC3)c2)c1 | inconclusive [inhibitor, single point] | –
